What all share (assay): protein-binding microarray (PBM)
What all share (settings): PBM: ~300 nM protein, 6 mM HEPES pH 7.8, 80 mM KCl, 0.5 mM EDTA, 0.5 mM EGTA, 6% glycerol, 35 ng/ul poly-dIdC, 1% milk, 1 h, room temperature; Ap Aiptasia and Nv Nematostella (sea anemones) / Co Capsaspora / Aq Amphimedon (sponge) / Dm Drosophila / Hu human; RHD is the Rel homology domain; high values mean tight binding; most listed sequences are background and not binding sites; double strand, one strand shown

The target in one test is T1, GST-Ap-NF-kB RHD (UniProt A0A913YAJ5).
T1 sequence: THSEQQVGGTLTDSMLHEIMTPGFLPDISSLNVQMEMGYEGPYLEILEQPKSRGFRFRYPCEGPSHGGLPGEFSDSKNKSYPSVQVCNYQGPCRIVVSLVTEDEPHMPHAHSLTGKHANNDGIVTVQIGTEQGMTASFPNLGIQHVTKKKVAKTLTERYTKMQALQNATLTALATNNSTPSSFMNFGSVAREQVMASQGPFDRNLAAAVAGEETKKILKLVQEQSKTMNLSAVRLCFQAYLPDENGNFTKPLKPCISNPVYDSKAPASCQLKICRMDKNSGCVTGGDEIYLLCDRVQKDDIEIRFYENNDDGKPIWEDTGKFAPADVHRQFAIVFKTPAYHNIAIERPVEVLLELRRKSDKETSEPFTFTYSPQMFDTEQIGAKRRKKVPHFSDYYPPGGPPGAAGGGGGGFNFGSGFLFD

The target in a further test is T2, GST-Co-NF-kB (UniProt F1ARL5).
T2 sequence: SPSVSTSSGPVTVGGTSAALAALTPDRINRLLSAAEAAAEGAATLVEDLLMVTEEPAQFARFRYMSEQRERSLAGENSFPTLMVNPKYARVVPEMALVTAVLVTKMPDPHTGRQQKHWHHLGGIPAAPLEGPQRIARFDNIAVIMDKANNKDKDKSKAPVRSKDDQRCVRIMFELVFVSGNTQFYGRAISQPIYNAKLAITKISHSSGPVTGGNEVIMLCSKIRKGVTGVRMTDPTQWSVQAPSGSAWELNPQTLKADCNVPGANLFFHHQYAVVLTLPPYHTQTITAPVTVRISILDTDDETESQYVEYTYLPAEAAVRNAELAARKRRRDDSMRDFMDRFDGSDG

Another test concerns the target T3, GST-Aq-NF-kB (UniProt A9Y5G7).
T3 sequence: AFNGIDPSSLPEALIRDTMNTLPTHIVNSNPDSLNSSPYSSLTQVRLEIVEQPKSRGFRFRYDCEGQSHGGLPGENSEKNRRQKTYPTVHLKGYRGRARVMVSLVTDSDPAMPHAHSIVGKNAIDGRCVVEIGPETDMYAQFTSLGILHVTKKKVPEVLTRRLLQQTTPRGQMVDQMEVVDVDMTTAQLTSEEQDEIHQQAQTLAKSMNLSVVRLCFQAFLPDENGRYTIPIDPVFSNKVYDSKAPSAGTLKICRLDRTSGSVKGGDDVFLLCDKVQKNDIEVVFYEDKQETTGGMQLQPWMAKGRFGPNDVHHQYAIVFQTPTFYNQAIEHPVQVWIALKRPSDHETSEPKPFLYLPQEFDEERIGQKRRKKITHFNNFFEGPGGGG

The next test deals with T4, GST-Dm-Relish (UniProt Q94527).
T4 sequence: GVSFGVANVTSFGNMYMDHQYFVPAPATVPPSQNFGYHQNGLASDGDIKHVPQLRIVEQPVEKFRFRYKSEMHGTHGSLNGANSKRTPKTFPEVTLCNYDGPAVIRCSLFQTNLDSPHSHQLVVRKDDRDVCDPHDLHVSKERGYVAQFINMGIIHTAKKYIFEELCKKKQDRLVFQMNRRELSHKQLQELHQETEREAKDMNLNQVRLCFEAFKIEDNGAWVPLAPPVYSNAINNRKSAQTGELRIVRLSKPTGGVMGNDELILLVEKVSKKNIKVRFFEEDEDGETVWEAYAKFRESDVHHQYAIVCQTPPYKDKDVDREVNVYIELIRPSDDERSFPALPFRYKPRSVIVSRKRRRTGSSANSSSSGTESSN

The entries are a selection whose mix differs from that of the whole data set. The list includes weakly bound sequences.

Take “CCGATTAACATCAGGGGGTTGGATGATGTTAATCGGGTCTTGATTCGCTTGACGCTGCTG”: the binding signal in the test with GST-Ap-NF-kB RHD was determined as 4.25 z-score; in the test with GST-Co-NF-kB, 2.05 z-score; with GST-Aq-NF-kB it was 3.38 z-score.

As to “CCGATTAACATCAGAAACTTCCCTGATGTTAATCGGGTCTTGATTCGCTTGACGCTGCTG”, the results for the binding signal in the test with GST-Ap-NF-kB RHD, with GST-Co-NF-kB and with GST-Aq-NF-kB were 4.46 z-score, 2.41 z-score and 5.51 z-score, respectively.

As to “CCGATTAACATCAGGGGAAGGACTGATGTTAATCGGGTCTTGATTCGCTTGACGCTGCTG”, the binding signal with GST-Ap-NF-kB RHD amounted to 4.32 z-score; with GST-Co-NF-kB, 4.12 z-score; with GST-Dm-Relish, 8.23 z-score; in the test with GST-Aq-NF-kB, 5.22 z-score.

On to “CCGATTAACATCACAATTTCCCCTGATGTTAATCGGGTCTTGATTCGCTTGACGCTGCTG”, for which the binding signal with GST-Ap-NF-kB RHD came to 8.29 z-score; with GST-Co-NF-kB, 8.61 z-score; with GST-Dm-Relish it was 5.96 z-score; with GST-Aq-NF-kB, 6.69 z-score.

As for “CCGATTAACATCACGTGGGGCGTTGATGTTAATCGGGTCTTGATTCGCTTGACGCTGCTG”, the binding signal stood at 0.973 z-score in the test with GST-Ap-NF-kB RHD, 0.69 z-score in the test with GST-Co-NF-kB, 0.692 z-score with GST-Dm-Relish and 0.97 z-score with GST-Aq-NF-kB.

For “CCGATTAACATCAGAACTCCCCCTGATGTTAATCGGGTCTTGATTCGCTTGACGCTGCTG”, the binding signal with GST-Ap-NF-kB RHD was determined as 7.91 z-score; with GST-Co-NF-kB, 6.15 z-score; in the test with GST-Aq-NF-kB, 6.48 z-score.

With “CCGATTAACATCAAAATTTACCGTGATGTTAATCGGGTCTTGATTCGCTTGACGCTGCTG”, the binding signal is 0.895 z-score with GST-Ap-NF-kB RHD, 1.05 z-score in the test with GST-Co-NF-kB and 2.12 z-score with GST-Aq-NF-kB.

With “CCGATTAACATCACAAAACCCCCTGATGTTAATCGGGTCTTGATTCGCTTGACGCTGCTG”, the binding signal in the test with GST-Ap-NF-kB RHD was found to be 9.76 z-score; with GST-Co-NF-kB, 3.3 z-score; with GST-Dm-Relish it was 10.4 z-score; with GST-Aq-NF-kB it was 7.82 z-score.

For the sequence “CCGATTAACATCACGGAAAAAACTGATGTTAATCGGGTCTTGATTCGCTTGACGCTGCTG”, the binding signal came out at 0.665 z-score in the test with GST-Ap-NF-kB RHD, 1.37 z-score in the test with GST-Co-NF-kB and 0.929 z-score with GST-Aq-NF-kB.

“CCGATTAACATCAAGGGGGTTCCTGATGTTAATCGGGTCTTGATTCGCTTGACGCTGCTG”: the binding signal with GST-Ap-NF-kB RHD stood at 9.16 z-score; in the test with GST-Co-NF-kB, 1.68 z-score; with GST-Dm-Relish, 10.4 z-score; with GST-Aq-NF-kB, 7.2 z-score.

For the sequence “CCGATTAACATCAGACTGGGAAATGATGTTAATCGGGTCTTGATTCGCTTGACGCTGCTG”, the binding signal was 1.4 z-score with GST-Ap-NF-kB RHD, 0.367 z-score in the test with GST-Dm-Relish and 1.18 z-score with GST-Aq-NF-kB.

On to “CCGATTAACATCAGGAAATACCCTGATGTTAATCGGGTCTTGATTCGCTTGACGCTGCTG”, for which the results for the binding signal with GST-Ap-NF-kB RHD, with GST-Co-NF-kB and with GST-Aq-NF-kB were 6.05 z-score, 1.14 z-score and 9.37 z-score, respectively.

Take “CCGATTAACATCACCAGGTTAGGTGATGTTAATCGGGTCTTGATTCGCTTGACGCTGCTG”: the results for the binding signal in the test with GST-Ap-NF-kB RHD, with GST-Co-NF-kB and in the test with GST-Aq-NF-kB were -0.198 z-score, 0.425 z-score and 0.668 z-score, respectively.

With “CCGATTAACATCAGAAAAATACCTGATGTTAATCGGGTCTTGATTCGCTTGACGCTGCTG”, the results for the binding signal in the test with GST-Ap-NF-kB RHD, in the test with GST-Co-NF-kB and with GST-Aq-NF-kB were 1.31 z-score, 0.305 z-score and 3.17 z-score, respectively.

The record behind these values is paper PMC5700166.
